The supplement of paper PMC11417369
The other results are listed elsewhere or left out.

test system: PfSIP2 AP2 domain 1 (GST-tagged); assay: gcPBM binding intensity (ln(normalized median fluorescence intensity)); higher = stronger DNA binding
Method in brief: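 Plasmodium falciparum DNA-binding domains carrying a GST tag were expressed in E. coli and applied for 1 h, at about 25 μg on average, to an Agilent 4 × 180k array. The array held primer-extended double-stranded 36-bp intergenic genomic probes together with negative controls, and binding took place in 1× PBS with 1% milk, 0.2 mg/ml BSA, 0.5% salmon testes DNA and 0.03% Triton X-100. An Alexa488 anti-GST antibody detected bound protein, and the array was scanned at 488 nm. Binding intensity is taken as the highest Masliner-normalised natural-log median intensity across replicate spots of either probe orientation.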

Row | Sequence | gcPBM binding intensity (ln)
1 | ATATTTATATATATATGTACATATGTGTGTTTTTAT [XGTACX_site3956] | 7.16
2 | AAAAAAATAATGTACACACACATATCTGTTTATATA [CACACA_site4270] | 6.94
3 | ATATATAACTTTTCTTAACACACAAAAAACAAAAAT [CACACA_site8748] | 7.3
4 | TCATAAACATTATGCACACAAAAATAAAAAAAAATA [CACACA_site1115] | 7.52
5 | AAGAAAAACTTTACGTGTACCAAACATCCTGCCGAC [XGTACX_site4895] | 6.74
6 | GTATTCTACAGACACATACACACATATATATATATA [CACACA_site3427] | 9.71
7 | AAAAAATAATTGAAGTGTACGTACAATGATTTTACT [XGTACX_site7663] | 6.99
8 | GGGAGAAATTTATACATACACACATATATATATTAT [CACACA_site4039] | 7.17
9 | TTATAATATTGTGGTATACACACCTTACAAAAAGGT [CACACA_site2878] | 7.03
10 | TTTATTTTCATATGAACACACATATATATATTATAA [CACACA_site2369] | 7.13
11 | TGTTCTGAACGGTTCATGCACTTTTTTTTGTTAATT | 7.84
12 | CTGTTTTTGTTTTAAAGTACATTGTTCAATATACAT [XGTACX_site5288] | 7.5
13 | TACAATGTGGATAATTGTACAAAACCGATAAGAGGG [XGTACX_site6453] | 7.7
14 | TATATTCTACAAGAATTATGAATTGTCAGACCAAAT [CACACA_negctrl_site1101] | 6.87
15 | TTATATACCCTAATATGTTTTATTATTATTATATAT [TGCATGCA_negctrl_site6] | 6.87
16 | ATATAAATAATATAAATACACACTAAAAAAAATATA [CACACA_site542] | 7.09
17 | ATAATTTATATTCAGAAACACACGAAAAAAAAAAAT [CACACA_site1296] | 7.21
18 | AACTAAACAAAAGTTACACACATCATACGATATTAT [CACACA_site3180] | 6.78
19 | TATATTATATACGTCTGTACACAAATGAGAGGTAAA [XGTACX_site5538] | 7.61
20 | ACCATATAATTTTTTTGTACATAATGATTTTTTTTT [XGTACX_site1104] | 7.11
21 | ATGTTAAGAATAATTAGTACTTACATATGTATAATA [XGTACX_site4419] | 6.93
22 | TTATAAAAAAAAAAAAAAAATATATATATATATATA [XGTACX_negctrl_site592] | 9.62

Row | Sequence | gcPBM binding intensity (ln)
23 | AAAAAATAATAATAAAATGAATAGATATGTATTTAT [TGCATGCA_negctrl_site210] | 6.92
24 | AATAATATATATTGTACACACAAAATGGGAAAAAAA [CACACA_site5100] | 7.07
25 | ATATATATATATATTTGTACAGAAAATATTTTAATA [XGTACX_site3706] | 9.47
26 | AGCAGAGTTACAATTTGTACGTAATTGATATAGATA [XGTACX_site4051] | 6.89
27 | AACATATTATCTTGTGAAAATAATATAAGTCACATT [TGCATGCA_negctrl_site339] | 6.68
28 | ACAAAATGTAAATAAACACACATATATATATATATA [CACACA_site1281] | 9.61
29 | AGTTTTTATTAAAACAAAATTTAATTATAACGTTGA [XGTACX_negctrl_site298] | 6.69
30 | CGTAGCCCCACTAACACACACAAATATACTCAATCA [CACACA_site5587] | 7.24
31 | TTATATGTATGAACAAGTACATGCTATAATTATAAA [XGTACX_site1399] | 6.86
32 | TATATATATATATACACACATACATATATATATTTG [CACACA_site857] | 9.56
33 | ATATATATATATATATGTACATATATACATATATGT [XGTACX_site1521] | 9.45
34 | TTTTTTTTTTTTTGATGTACAATAATTAAAGAGTAA [XGTACX_site8403] | 7.08
35 | AGTAGTCTGGAGAAGAGTACATAGTTTCTGGTAGCT [XGTACX_site2023] | 6.81
36 | ATATTTACCATTGTATGTACATATATAAAATATATC [XGTACX_site3237] | 7.16
37 | GTATATATATATATATGTACATATTTAGAGTTCTGT [XGTACX_site5357] | 7.29
38 | AACATATACACGAACACACACACATATATATATATA [CACACA_site502] | 9.44
39 | AAAACAAATGAGTACACACACATAAAAATTGAAAAT [CACACA_site199] | 7.49
40 | TAAAGAAAAAAATGTTGTACTTTATGAAACATATTT [XGTACX_site412] | 7.01
41 | TCGGTATCTGTTCAAAGTACACATTTGTATACAAAA [XGTACX_site1890] | 7.18
42 | ACACTATCTTAGATTTGTACATATTTATATATGTAT [XGTACX_site8739] | 6.88
43 | TATATAACATATGGGACACACATGCAACTGTTATAT [CACACA_site3792] | 7.19
44 | TTTTTATATTATTTAATGAGAAATAATTATAAACAA [CACACA_negctrl_site553] | 6.9

Row | Sequence | gcPBM binding intensity (ln)
45 | AAAAATATTATGATGTTTATTAGAAAGGAAAAAACT [CACACA_negctrl_site1417] | 7.06
46 | ATGTGATGTTATATATGTACTTATTTTTTAATAAGG [XGTACX_site1786] | 7.29
47 | TGCTTATCCATTTCTACACACAAAAAAAAAAAAAAA [CACACA_site37] | 7.35
48 | AAATGGGTTTATTTAACACACAAAAGAAAAAATATA [CACACA_site1938] | 6.98
49 | TATATATATTTATGTTGTACAAAATATTATTACGTA [XGTACX_site5384] | 7.22
50 | TTATATTATAACAAACGTACGAATTTTATACAAATA [XGTACX_site7258] | 7.1
51 | TATTTTTACAATGGTAGTACCATTTTGAATCTTTGT [XGTACX_site6092] | 6.97
52 | CACCCGCACGTATTTGCACACATTGCCACGTAATTA [CACACA_site5786] | 7.76
53 | GTACTCTTCTCCAGACTGCACTATACGACTCGTACA [GTGCAC_site9770] | 8.49
54 | ATATATATATATATATGTACTTATATATAATATAGA [XGTACX_site3488] | 9.15
55 | ATTACATACACGCGCACACACAAAAAAAAAAAAAAA [CACACA_site1334] | 7.88
56 | TGGTATGTTTTACAAAGTACCCATCGATTCTTATGT [XGTACX_site2822] | 6.71
57 | AAAAAGTAGTAAAACAGTACAGTATTTATGCCTATT [XGTACX_site6434] | 6.75
58 | AAAAAAAAAAAAAGTACACACTTTTGCGTACATGTA [CACACA_site7449] | 7.46
59 | AATATATTTTTCTACCGTACATAATAAAATATATAT [XGTACX_site1777] | 7.23
60 | TATTTATTTATTTATTGTACATAAGTATATATTATA [XGTACX_site6566] | 6.98
61 | GAACCACTAAAATGAGCATGCTCATATTTACATATA [TGCATGCA_site1033] | 6.93
62 | AAATAAGAGCGTAGCACACACGCATTTTATAAATGT [CACACA_site741] | 6.81
63 | TATCATTTTATTATTCTACACACTTATCTATAATTA [CACACA_site7894] | 7
64 | TTTTTTTTTTTTTTTGCATGTTGTTTAATGTATTGT [TGCATGCA_site772] | 6.99
65 | TAAAAATGTGGACACACACACATATTTATATTTAAT [CACACA_site6827] | 7.25
66 | TTTTACAAAATAAAAATATAGAATACGGTAAATTAT [GTGCAC_negctrl_site40] | 7.18

Row | Sequence | gcPBM binding intensity (ln)
67 | TGTTGATGATATTACACACCCAATGAGAAAAGGAAT [CACACA_site2072] | 7.25
68 | ATATTTAAAGAATAAGTGCAAAATGTAATTAATTTT [GTGCAC_site9901] | 7.91
69 | TATATTTTATAAAAAAGTACACATGAAAATGTATTT [XGTACX_site5889] | 7.61
70 | AAAGGGGATATATGAACACACAAAAAAAAAATATAT [CACACA_site2896] | 7.07
71 | TGTAGTCTGGAGAAACGTACACAGTATCTGGTAACA [XGTACX_site4938] | 7.05
72 | TATTTATTACTATGTAAACACACATGCAATATATGT [CACACA_site8288] | 7.05
73 | TTTTTTCCTTTTAATTGTACACAGATATAATATATT [XGTACX_site2230] | 7.04
74 | AAATTTTATTATAGCAGTACAATATAATATTATTAA [XGTACX_site1971] | 6.83
75 | AAATATTTTTTTTCTACACACATACAAATATAGATT [CACACA_site7164] | 7.11
76 | ATGCCCCATATAAACACACAAATAAAAAGAATATAC [CACACA_site7292] | 7.35
77 | ATATAATTAAAATGCTCACACACATAAAAAAAAATT [CACACA_site2148] | 6.91
78 | CACATATATATGTGTGCATGTTGTATTATATATTTA [TGCATGCA_site632] | 8.48
79 | ATAATTACAAAATAAACACACATATAGATTTATATG [CACACA_site6343] | 7.15
80 | TACATAATACATATAACACACACAATTATACATAAA [CACACA_site9060] | 7.13
81 | ATTTTATTTTTTAAAGGTACAGTTACAGCTTATATA [XGTACX_site7513] | 7.1
82 | GTACATATATACATTACACACGGTTTGATTTAAAAA [CACACA_site3379] | 7.26
83 | TCTTTTAAAAAAAAAGGAGGAACATAAAAAGTAGAA [XGTACX_negctrl_site272] | 7.26
84 | AACAAACACGGACACACACACACACTAGAATGATTA [CACACA_site5364] | 7.31
85 | AAAAATTTAAGTGGGGGTACATTTTTTTAACACCTT [XGTACX_site1093] | 7.31
86 | ATATTTAAATGTAATACATGCAAATTTGAACATTTT [TGCATGCA_site736] | 7.08
87 | TAATATATTAACATGGGTACATATTATTTCATGTGT [XGTACX_site5985] | 7
88 | AAAAAAAAAAAAATCACACATATGTATTTATATATA [CACACA_site5790] | 6.91
